Reference: article PMC12136788
The other results are listed elsewhere or left out.

T1: UNK ZnF1-3 (human, UniProt Q9C0B0 31-174)
T1 sequence: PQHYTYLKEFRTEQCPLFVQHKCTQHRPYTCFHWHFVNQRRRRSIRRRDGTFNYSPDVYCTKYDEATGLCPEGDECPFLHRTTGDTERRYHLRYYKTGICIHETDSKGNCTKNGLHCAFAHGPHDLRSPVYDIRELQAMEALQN

B1: 25054733_25054853_448_ncRNA_ENSMUSG00000024163_ENSMUST00000126280|mouse|control|control (ssRNA)
RNA: GGGAGUUCUACAGUCCGACGAUCGGGGGCUAUCCUAAACUCACAGGUGCUAGUGUGAAGUCAAACAGAGCAGGAAGCUCGUGCAUUCUGACAUCCCAGCUCUGUUUCUGUCUCAUGUCAGGGGAUGGUAGACUAACUCAGGGACAACAGAGGAUUGAGCAUCA
B2: chr14:89327608:89327609:+_ENSG00000165533_ENST00000346301|hu_hu|FALSE|FALSE (ssRNA)
RNA: GGGAGUUCUACAGUCCGACGAUCUUCCUCAUAGAUUCUUGCAAUUCCACAGAGCAGGGUUACUUCUCCUGGAAACUUAUCUAAGCCUUGUUUGAAAAGAUUUAAAGCAGUCACAGGUUGAUCCAAUGAGACAUAAACUUUUGCCAACAGAGGAUUGAGCAUCA
B3: chr7:44244176:44244177:+_ENSG00000106636_ENST00000223369|hu_mus|hu_hu_hu_mus_False|38_98 (ssRNA)
RNA: GGGAGUUCUACAGUCCGACGAUCACUGUCGCUCCGGACGUAGACGUGGCAAAGAUACUCUUGUUCUUUGACAGAAGCUCUGCUGCCUUUCCCCGAGCGCUCCACAAUCAGUUGACUUGUAAAGGUCAUGAAUUCCUGCACACUCAACAGAGGAUUGAGCAUCA
B4: chr2:42509997:42509998:+_ENSG00000143924_ENST00000318522|hu_mus|hu_hu_hu_mus_True|28_38 (ssRNA)
RNA: GGGAGUUCUACAGUCCGACGAUCUCGCUGAGUCCUCUCCUCAUAAUUAAACAGGACUACCACUGAGGCGAUAAAAUAAACUAUCUCCCCUGUGGGAAGAAGGUAAACAUUAGCUCUACAGUCCUUUCCUCGAUAACCGUAUACCAACAGAGGAUUGAGCAUCA
B5: chr21:30248746:30248747:-_ENSG00000156239_ENST00000303775|hu_mus|FALSE|FALSE (ssRNA)
RNA: GGGAGUUCUACAGUCCGACGAUCGAGCGAUUGUUCAGCUGCCGGCAGCUCUUGUUUACUUCUGUGGCUUUCAGGACACUAGGACUUGCUGAACCUGAGGACUGACAGGGCUUCUUGGCCUGCUUGCCUGCAAAGUGCUGUGGUCAACAGAGGAUUGAGCAUCA
B6: 117632743_117632863_374_CDS_ENSMUSG00000038371_ENSMUST00000033058|mouse|control|control (ssRNA)
RNA: GGGAGUUCUACAGUCCGACGAUCGAUCUCUGCCUCAUAGAAAGUUAGACAUGAGCAGUAAUGUCGAUCUGAGUCAAUAUCUGUUAGGACCACCACAAAGAAUGUUGGCUGUUUCCGCUCUCUGGACAGGUGCCAUCCACCAGGCAACAGAGGAUUGAGCAUCA
B7: chr1:150203005:150203006:-_ENSG00000143401_ENST00000314136|hu_mus|FALSE|FALSE (ssRNA)
RNA: GGGAGUUCUACAGUCCGACGAUCAAGAUUUGGACAUUUCUCUGCCAGGACUUCCAAGCCUCCAGAAAUUAUAUUGUCACUAAGUUCCAACUUCCGGAGUUUAUUCAAGCUGGGAAGCCGGGCCAAGGAACUCAACUCCACGUUCAACAGAGGAUUGAGCAUCA
B8: chr10:102306293:102306294:+_ENSG00000166135_ENST00000299163|hu_mus|motif|central (ssRNA)
RNA: GGGAGUUCUACAGUCCGACGAUCAGCCCCCUUAUACCAGAAGUUCACAGUGAUGGUAAUUCCCCCAUUUAGUAAUGACUCGGUAUGGUGCCACCAGUACAUUGGGAUGUAAAGAACAUCCCCAGGGCCAACCACUGUCUCAUACAACAGAGGAUUGAGCAUCA
B9: chr6:41757443:41757444:+_ENSG00000214736_ENST00000398881|hu_mus|hu_hu_hu_mus_False|8_8 (ssRNA)
RNA: GGGAGUUCUACAGUCCGACGAUCGAACCGUGCAGAGGCAACAUCUCAGCCGACACUGGGGGAUGGGGGGGCAGUGGGGGGGGGUUCAGGCAAGGAGAGGGAGUCAACUUCAGCUGCCACUCAGGUAGCUGCCAUCAGUCACAGCAACAGAGGAUUGAGCAUCA
B10: chr1:165619138:165619139:+_ENSG00000143198_ENST00000367886|hu_hu|FALSE|FALSE (ssRNA)
RNA: GGGAGUUCUACAGUCCGACGAUCUUUGUACUUCUUGCGGGCCUUGGAAACAUUGAUGGCUAGGUGGGCCACCAUUAUAAAGCUGGCAGCACCAGUUAGAAGCACAAAACCAUAUUCCUUAGAGAGGACAGCCAUCUUGCGUCUCAACAGAGGAUUGAGCAUCA
B11: chr8:95500983:95500984:-_ENSG00000164944_ENST00000437199|hu_hu|hu_hu_hu_mus_True|18_68 (ssRNA)
RNA: GGGAGUUCUACAGUCCGACGAUCAGAACACAUCUAUCGAGUAAAGGACCGUACAUGACGGCCUCUAACCACUGCCUCACUAACAAACUUUCCUCUCGAGCCUCCACUGCCGCUAUUUUGCACUAGCCAGGACGGUCCCAGGCCCAACAGAGGAUUGAGCAUCA
B12: chr14:89338683:89338684:+_ENSG00000165533_ENST00000346301|hu_hu|hu_hu_hu_mus_False|48_48 (ssRNA)
RNA: GGGAGUUCUACAGUCCGACGAUCGUGGUUGUUGUGGACCAGGGCCAGCCUGAAGCAUUGGUGGGCCAAGUUUGUAUCUCCGAUUCCCACAGCUACAUGCCCCAGGUUGUACCAGACAUCAGCUGCCUCUUCUUCAUUUUCAGCCAACAGAGGAUUGAGCAUCA
B13: 100006237_100006726_2590_CDS_ENSG00000158417_ENST00000289371|human|control|control (ssRNA)
RNA: GGGAGUUCUACAGUCCGACGAUCAGUGCGGGGAUCUUUAUUCUCAUAAAACAAAGCAGCAUUCAAACCCUGCUGUGCAAAUUCUACAAUAAUAGCCUUUGCUCGCUCCUCAAAUUCAUCUUUUGUAUUCUUUUUCUGCUUCUUCAACAGAGGAUUGAGCAUCA
B14: chr8:59494266:59494267:+_ENSG00000137575_ENST00000447182|hu_hu|FALSE|FALSE (ssRNA)
RNA: GGGAGUUCUACAGUCCGACGAUCUACAUUUCCAUGGUGCCGUGAAUUUUAAACCUCAGGAAUGGUGUGGUCCAUUAGGCUUUUCAUAAUGCUUGGUGCCAUCCGCUUAAUAAUAUGUUCAAAGAUAAAAGCAGGCAUGAUUGUCAACAGAGGAUUGAGCAUCA
B15: chr9:56909451:56909452:+_ENSMUSG00000032290_ENSMUST00000034832|mus_hu|motif|central (ssRNA)
RNA: GGGAGUUCUACAGUCCGACGAUCCAUAAGUGCACACACACACACACACAGAAUGACAGAAAGGACUGGAAUACACGCCCGGCUUAUAAACGUGCUUGGCACUCAGGACGAUCUCUAGAAUAUGUAACUUGGUCAAGCUCUCUGCAACAGAGGAUUGAGCAUCA
B16: chr4:88366173:88366174:-_ENSMUSG00000070923_ENSMUST00000094993|mus_hu|FALSE|FALSE (ssRNA)
RNA: GGGAGUUCUACAGUCCGACGAUCUGGAAAAACUGUGAGUGUACAGGCUCGAAUGCCACCAAGUGACUCUGGAAGAUCAAAAACUUUAUGCCACUCAUCUUUUUCUGGGUCAUAUUUCUGGACAAUUUCUACCAUACAACGAUUCAACAGAGGAUUGAGCAUCA
B17: 51514752_51517885_3253_CDS_ENSMUSG00000036391_ENSMUST00000109097|mouse|control|control (ssRNA)
RNA: GGGAGUUCUACAGUCCGACGAUCGUUGAGAGCUCCCUCAUCUGAGAGGUUGUCAACUCUGUACAAACUGGGAUGUGUUGUGAGCAUGAGGUGAACCAAUGGCUGGCUUUUCACUUGACACAUGGCAAAAAUUCGUUCAUCUAGCAACAGAGGAUUGAGCAUCA
B18: chr20:57485947:57485948:+_ENSG00000087460_ENST00000306090|hu_mus|motif|central (ssRNA)
RNA: GGGAGUUCUACAGUCCGACGAUCGGGGUUUUUCAGAAUCACUGGGGGAAAAAGGAAAGGUUGCGGUGUUGAUCAUGCCCGGUGGUGGGUGACCAACUGCUUGUACAAUUACGUUUCACUCUUAAUUAAUUGUGCUUAAGGCUGCAACAGAGGAUUGAGCAUCA
B19: chr8:104447970:104447971:+_ENSG00000164934_ENST00000297579|hu_hu|hu_hu_hu_mus_False|68_88 (ssRNA)
RNA: GGGAGUUCUACAGUCCGACGAUCAUACACUUCCCUGCUUCGGCUCUUGUCUACAGGAAAGAUUCUAAUAGAUUUAUCAAAGCUGGCAGACACAAAUUCCUUCCCAGUGGGAGAGUAGUCCACAUCAAGUACUGCAGACACGUGCAACAGAGGAUUGAGCAUCA
B20: chr12:98991669:98991670:+_ENSG00000075415_ENST00000552981|hu_hu|FALSE|FALSE (ssRNA)
RNA: GGGAGUUCUACAGUCCGACGAUCGAAUCCGUUAAAUAUGCCCUUGUACUUUUGGGGGUCCACCUGCAUACGGCAUUUCACUAAAUCCAGGGGAACCACAGCAGUGUGUGUCAGACCACAACUUAAGACCCCACCAAAGCCACACAACAGAGGAUUGAGCAUCA
B21: chr19:8913615:8913616:-_ENSMUSG00000071658_ENSMUST00000096259|mus_hu|mus_mus_mus_hu_False|58_88 (ssRNA)
RNA: GGGAGUUCUACAGUCCGACGAUCAGGGUACCAAAACCUUCUGCCUGAGAUAGGUGCCCCACCCAGUAGGGAGUUGCAGCUAAAAAUAUCUGAUGCAGAAGCAGUGACUAUACGAAAGGAGGCCCCUGGGGAGGGCCAGGCCAGCAACAGAGGAUUGAGCAUCA
B22: chr2:9570881:9570882:+_ENSG00000119203_ENST00000238112|hu_mus|hu_hu_hu_mus_False|8_48 (ssRNA)
RNA: GGGAGUUCUACAGUCCGACGAUCACUUGUCUUCUGAAGGAACCAGGGCAGGGCUCCACAGUGAUCCAAAUGGAAAUGACUGAUCAAUAGGAGAUCAAUCUCAGCUGGGUCGAUAAGGUCAAUGUAAGGAAGAGCAUCCAUUCCCAACAGAGGAUUGAGCAUCA

Target: T1, UNK ZnF1-3
Assay: nsRBNS (natural sequence RNA bind-n-seq); RBNS binding buffer (assumed for nsRBNS): 25 mM Tris pH 7.5, 150 mM KCl, 3 mM MgCl2, 0.01% Triton X-100, 500 ug/ml BSA, 20 U/ml SUPERase-In, 4 C; UNK is unkempt and MSI1 is Musashi-1; names of the RNAs are library labels; protein concentration not given here; high values mean tight binding

Binder | binding signal
B1 | 1.12 enrichment R
B2 | 1.21 enrichment R
B3 | 0.747 enrichment R
B4 | 1.05 enrichment R
B5 | 0.994 enrichment R
B6 | 1.52 enrichment R
B7 | 0.683 enrichment R
B8 | 1.3 enrichment R
B9 | 2.36 enrichment R
B10 | 1.02 enrichment R
B11 | 1.12 enrichment R
B12 | 0.678 enrichment R
B13 | 0.991 enrichment R
B14 | 1.24 enrichment R
B15 | 1.4 enrichment R
B16 | 0.999 enrichment R
B17 | 0.841 enrichment R
B18 | 1.09 enrichment R
B19 | 1.1 enrichment R
B20 | 1.05 enrichment R
B21 | 1.69 enrichment R
B22 | 1.1 enrichment R
